# Experimental data published in the supplement of paper PMC3334620.
# The full ranking holds about 33,000 sequences; the median of “E-score (-0.5 to 0.5)” is about -0.012, and the highest 2% start at about 0.27. The list shows a part of the results.
# Biological target: T1, Vhr1 (UniProt P40522)
# T1 sequence: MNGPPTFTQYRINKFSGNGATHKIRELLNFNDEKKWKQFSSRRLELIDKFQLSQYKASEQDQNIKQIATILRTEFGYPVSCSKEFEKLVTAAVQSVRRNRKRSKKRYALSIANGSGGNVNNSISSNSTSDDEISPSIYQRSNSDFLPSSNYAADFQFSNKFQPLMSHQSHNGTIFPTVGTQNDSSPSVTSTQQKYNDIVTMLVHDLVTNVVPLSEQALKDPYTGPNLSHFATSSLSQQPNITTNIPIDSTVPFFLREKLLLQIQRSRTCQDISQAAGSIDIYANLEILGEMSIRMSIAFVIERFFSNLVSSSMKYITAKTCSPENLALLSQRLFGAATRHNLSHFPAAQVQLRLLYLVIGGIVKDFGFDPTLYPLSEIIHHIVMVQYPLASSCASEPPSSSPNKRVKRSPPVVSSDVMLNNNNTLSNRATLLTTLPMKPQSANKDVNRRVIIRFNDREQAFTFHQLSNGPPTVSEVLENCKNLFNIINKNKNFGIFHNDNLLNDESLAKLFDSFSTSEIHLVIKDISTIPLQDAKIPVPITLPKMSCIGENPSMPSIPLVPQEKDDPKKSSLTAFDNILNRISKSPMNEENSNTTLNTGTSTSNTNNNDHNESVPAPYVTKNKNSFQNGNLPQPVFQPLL
# Test: PBM E-score (8-mer binding enrichment) (E-score (-0.5 to 0.5)); higher = stronger / more preferred TF binding; most listed sequences are background and not binding sites
# Conditions: protein concentration: 200 nM; construct: GST-full length
# Outline: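 Bound GST-tagged yeast transcription factors, applied at about 100-200 nM to double-stranded universal all-10-mer Agilent arrays, were detected with fluorescent anti-GST. Scans were normalised with masliner. A modified Wilcoxon-Mann-Whitney statistic, the E-score, was assigned to each ungapped eight-base word pooled with its reverse complement by the Universal PBM Analysis Suite.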
row,Sequence,PBM E-score
1,CGGGGTAA,-0.00758
2,CATTCGGA,0.147
3,CCATCCAA,0.0377
4,ACAATTTC,-0.134
5,CACAGAGG,-0.0112
6,GGACCTAC,-0.133
7,ACACTTCG,0.0579
8,CCTGGCCG,-0.0441
9,AAATTTCT,-0.455
10,CCTATGCA,-0.0709
11,CTCGTGAC,0.273
12,ACGACCAA,-0.0835
13,AATTTAAA,-0.144
14,GCTTGGAA,-0.238
15,AGGTAATG,-0.0593
16,AGAGGCAA,-0.133
17,GAGCAATC,-0.0368
18,GGAGGCCA,-0.159
19,ACCTTCTA,-0.168
20,GCCCCATA,-0.0566
21,ACACGTAC,-0.0503
22,CAACGGTC,-0.0951

row,Sequence,PBM E-score
1,AGAGGCGA,-0.332
2,CACCTACC,-0.125
3,CAGAAAAA,-0.174
4,CGGGTTTA,0.127
5,AGCGGGGA,-0.0182
6,ACACCGCT,0.0169
7,CATTCTAG,-0.089
8,ATCTCGAG,0.0581
9,GGGCTAAA,-0.221
10,GCTAGGAA,-0.0746
11,CCTACGCG,-0.0405
12,AGTGCTCG,0.0359
13,CCAACAGA,-0.0653
14,ATTAAGGG,-0.151
15,GACACCGC,0.0715
16,CCGCAGAC,-0.024
17,CGTTTTTC,-0.141
18,ATAAGTAC,-0.0774
19,ACAGAGGC,-0.214
20,CCAAGGCG,-0.0453
21,AATTAGGA,-0.0499
22,AATTTTTA,-0.119

row,Sequence,PBM E-score
1,AACACCCG,0.151
2,ACACCGCA,0.232
3,CCCGCAAG,-0.139
4,TGAGTGCA,0.111
5,AAGAAGGA,-0.126
6,GAGTCAAC,0.403
7,AAGGATAT,0.0955
8,GCAATTGA,-0.0856
9,TCATCCAA,0.138
10,AATGAACT,-0.123
11,CTGTTAGC,-0.131
12,GCGGGAGA,-0.0498
13,CGTGTTTA,-0.0707
14,CGCGGACA,-0.0134
15,CGCTTTAC,-0.148
16,AACGGGGA,0.0181
17,GCCAAGGA,-0.151
18,GCCTGCGA,-0.00738
19,CAATCACC,0.238
20,AAGATGAC,0.0814
21,AGATTGAG,0.0189
22,GGAAGTGA,0.0662

row,Sequence,PBM E-score
1,CGCGCGCC,0.228
2,CAAAACGC,0.0176
3,ACTAAATC,0.139
4,CAGTATAG,0.104
5,AAAGATGA,-0.086
6,CACACGGC,-0.00572
7,GATCGCCA,0.0308
8,TGTCGGAA,0.0453
9,GACCGGAA,-0.086
10,CATCCATG,0.186
11,GGGAAACA,-0.0283
12,CCGAACGA,0.12
13,AGCCCGCG,0.153
14,ATTTTTTA,-0.229
15,AATGTATG,0.0796
16,CCAGCCCA,0.111
17,CCTGAGGC,-0.096
18,CAAACGAC,0.194
19,AAAGCGTG,0.11
20,AGGGCGAA,-0.127
